Experimental data as given in PubChem BioAssay AID624417 (National Center for Advancing Translational Sciences (NCATS), 2012).
Out of some 410,000 compounds screened, about 6,400 (1.6%) were called active. Inconclusive results, whose numbers are uncertain, are shown with a selection of clear calls. Calls come from the whole dose curve; as a rule, active = well fitted inhibition curve with a large enough effect; inconclusive = small, poorly fitted or top-dose-only effect; inactive = no such curve, though single readings can be large or run the other way. No potency is given beside an inconclusive call; the fits are too rough.
Note: nearly all actives have a fitted effect of over 55% in size.
Potency is the fitted concentration of half-maximal effect; tags give direction and shape of the fitted curve.

What follows are compounds tested against Glucagon-like peptide 1 receptor (Homo sapiens) (UniProt P43220) (assay: qHTS of GLP-1 Receptor Inverse Agonists (Inhibition Mode)). Details: HEK293 GLP-1R CRE-luciferase, luminescence, 24 h, GLP-1R form is constitutively active; series mostly up to 38.3 µM.
UniProt P43220, sequence (P43220 whole entry, looked up): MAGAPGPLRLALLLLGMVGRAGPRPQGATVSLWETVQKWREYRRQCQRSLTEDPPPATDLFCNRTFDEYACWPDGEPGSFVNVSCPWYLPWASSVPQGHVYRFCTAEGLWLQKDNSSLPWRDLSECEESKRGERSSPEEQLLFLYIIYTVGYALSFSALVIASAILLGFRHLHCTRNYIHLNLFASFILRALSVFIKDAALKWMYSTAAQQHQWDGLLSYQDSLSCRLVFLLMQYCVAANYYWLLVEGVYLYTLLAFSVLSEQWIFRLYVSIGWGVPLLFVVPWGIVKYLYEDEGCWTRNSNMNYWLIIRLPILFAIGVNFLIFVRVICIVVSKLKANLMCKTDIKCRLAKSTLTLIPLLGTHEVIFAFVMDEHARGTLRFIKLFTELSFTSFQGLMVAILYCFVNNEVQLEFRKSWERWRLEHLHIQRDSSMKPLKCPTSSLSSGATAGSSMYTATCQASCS
Outline: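 Seeding at 200 cells/uL, 12 h culture, 24 hr compound treatment, then luciferase reagent and a luminescence read; cells are HEK293 stably expressing a constitutively active GLP-1R plus cAMP-responsive luciferase.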
With O=C(N/N=C/c1cn(Cc2ccccc2)c2ccccc12)c1cccnc1 the Potency was inconclusive [inhibitor, partial curve, poor fit]. In the case of O=C1CC(c2nc3ccccc3[nH]2)CN1c1cccc(C(F)(F)F)c1 (stereo not given), the Potency is reported as inconclusive [inhibitor, single point]. O=C(COC(=O)C12CC3CC(CC(C3)C1)C2)NC12CC3CC(CC(C3)C1)C2 was tested, and the Potency was inconclusive [inhibitor, partial curve, poor fit]. With O=C(c1ccc(C(F)(F)F)cc1)N1CCC(=O)N(C(COCc2ccccc2)Cc2ccccc2)CC1 (stereo not given) the Potency was inconclusive [inhibitor, partial curve, poor fit]. With COc1cc(C=C(OC(C)=O)c2ccc3c(c2)OCO3)cc(OC)c1OC the Potency was “inactive”. Cc1ccc(/C=C/S(=O)(=O)NCCC(=O)NCc2ccccc2F)cc1 was tested, and the Potency was inconclusive [inhibitor, partial curve, poor fit]. For c1ccc2c(NC3CCCC3)nnc(NC3CCCC3)c2c1, the Potency was inconclusive [inhibitor, single point]. In the case of Cc1ccc2nc(N3CCN(Cc4nnnn4Cc4ccccc4)CC3)c(C#N)cc2c1, the Potency is reported as inconclusive [inhibitor, single point]. COc1cccc(CNc2nc3cc(C(C)=C(C)C)sc3c(=O)n2C)c1 was tested, and the Potency was inconclusive [inhibitor, single point]. COc1ccccc1NC(=O)c1c(Nc2ccccc2F)sc(C(=O)Nc2cccc(Cl)c2)c1N was tested, and the Potency was inconclusive [inhibitor, partial curve, poor fit]. For O=c1nc2sc3ccccc3n2c(=O)n1-c1ccc(Cl)c(Cl)c1, the Potency was “inactive”. CC1(C)Cc2ccccc2-c2nnc(SCc3ccccc3)n21 was tested, and the Potency was inconclusive [inhibitor, single point]. For O=C1c2[nH]nc(-c3ccccc3O)c2C(c2ccc(Cl)cc2)N1Cc1ccco1 (stereo not given), the Potency was inconclusive [inhibitor, partial curve, poor fit]. For CCOC(=O)c1[nH]c2ccc(F)cc2c1NC(=O)CN1CCN(C/C=C/c2ccccc2)CC1, the Potency was inconclusive [inhibitor, partial curve, poor fit]. For C=CCNC(=S)N(CC)c1cccc2ccccc12, the Potency was inconclusive [inhibitor, single point]. O=C1OC(Nc2ccc(Br)cn2)c2ccccc21 (stereo not given) was tested, and the Potency was “inactive”. With Fc1ccc(-c2nc3ccc(Br)cn3c2Cc2cccc(F)c2)cc1 the Potency was inconclusive [inhibitor, single point]. Cn1nc(-c2ccccc2)c(C(O)c2ccccc2C(F)(F)F)c1Cl (stereo not given) was tested, and the Potency was inconclusive [inhibitor, single point]. For O=C(CNC(=O)c1ccc(S(=O)(=O)N2CCCC2)cc1)N/N=C/c1c(Cl)cccc1Cl, the Potency was inconclusive [inhibitor, partial curve, poor fit]. CCc1ccc(-n2c(SCc3ccccc3F)nc3[nH]ncc3c2=O)cc1 was tested, and the Potency was inconclusive [inhibitor, partial curve, poor fit]. In the case of CCc1ccc(C(=O)c2cn(CC(=O)NCCc3ccc(OC)c(OC)c3)c3nc(C)ccc3c2=O)cc1, the Potency is reported as “inactive”. For O=C(Nc1cccc(Cl)c1N1CCCC1)c1ccco1, the Potency was inconclusive [inhibitor, single point]. In the case of COc1cccc(NC(=O)CSC2=Nc3ccccc3N=C(c3ccc(F)cc3)C2)c1, the Potency is reported as inconclusive [inhibitor, single point]. For Fc1ccc(C2=NN(c3ccccc3)C(c3ccco3)C2)cc1 (stereo not given), the Potency was inconclusive [inhibitor, single point]. With O=C(NC(Nc1ccccn1)C(Cl)(Cl)Cl)c1ccccc1 (stereo not given) the Potency was inconclusive [inhibitor, partial curve, poor fit]. With O=C(COC(=O)c1c[nH]c2ccccc12)Nc1ccc(F)cc1 the Potency was inconclusive [inhibitor, single point]. With CCCCOc1ccc(/C=N/NC(=O)c2csc(C)c2C)cc1 the Potency was inconclusive [inhibitor, partial curve]. With CC1CCCCN1C(=O)c1cccc(NC2=C(Cl)C(=O)N(Cc3ccccc3)C2=O)c1 (stereo not given) the Potency was inconclusive [inhibitor, single point]. For CC(C)N(C(=O)COC(=O)CCC(=O)c1cccs1)c1ccccc1, the Potency was inconclusive [inhibitor, partial curve, poor fit]. With O=C(CCC(=O)N1CCCc2ccccc21)N1CCN(S(=O)(=O)c2ccccc2)CC1 the Potency was inconclusive [inhibitor, single point]. For CC(SC(C)C(=O)NN=Cc1cccc(F)c1)C(=O)NN=Cc1cccc(F)c1 (stereo not given), the Potency was “inactive”. Cc1ccc(N/N=C2/CCCNC2=O)cc1 was tested, and the Potency was inconclusive [inhibitor, full curve]. For Cc1cc(/C=N/NC(=O)Cn2c3ccccc3c(=O)c3ccccc32)c(C)n1-c1ccc(Cl)cc1, the Potency was inconclusive [inhibitor, full curve]. Cc1ccc(CNC(=O)CCCCn2c(=O)c3ccccc3n(Cc3c(C)cc(C)cc3C)c2=O)cc1 was tested, and the Potency was “inactive”. For Cc1cccc(Nc2nc(N)c([N+](=O)[O-])c(N3CCC(C)CC3)n2)c1, the Potency was inconclusive [inhibitor, single point]. O=C(C1CCN(c2nnc(-n3cccc3)s2)CC1)N1CCN(c2cccc(C(F)(F)F)c2)CC1 was tested, and the Potency was inconclusive [inhibitor, partial curve, poor fit]. CSc1ccc(Cn2c(C)c(C(=O)NCc3ccc(Cl)c(Cl)c3)sc2=O)cc1 was tested, and the Potency was inconclusive [inhibitor, single point]. For CCc1ccc(CCC(=O)Nc2ccc(Br)cc2)o1, the Potency was inconclusive [inhibitor, partial curve, poor fit]. CC(C)Oc1cccc(C(=O)NC(=S)Nc2cccc(C(F)(F)F)c2)c1 was tested, and the Potency was inconclusive [inhibitor, single point]. For Clc1ccc(C(c2ccccc2)N2CCN(c3ccccn3)CC2)cc1 (stereo not given), the Potency was inconclusive [inhibitor, partial curve, poor fit]. In the case of COc1ccc(CCCNC(=O)C2Cc3c(-c4ccccc4)ccnc3O2)cc1 (stereo not given), the Potency is reported as inconclusive [inhibitor, partial curve, poor fit]. In the case of CC(C)CCC1=NN(C(=O)c2ccco2)C(O)(C(F)(F)F)C1 (stereo not given), the Potency is reported as inconclusive [inhibitor, full curve, poor fit]. In the case of COc1ccc2c(C)cc(N3CCCCCC3)nc2c1, the Potency is reported as inconclusive [inhibitor, single point]. For CCOc1cc(C(=O)Nc2cc(C)ccc2C)ccc1OCC(=O)N1CCCCC1, the Potency was inconclusive [inhibitor, single point]. With CC(C)Sc1nc(NCc2ccco2)c2c3c(sc2n1)COC(C)(C)C3 the Potency was inconclusive [inhibitor, single point]. O=C(NCCc1csc(-c2ccccc2)n1)c1ccc(Br)o1 was tested, and the Potency was inconclusive [inhibitor, single point]. COC(=O)c1ccccc1COc1cccn2c(N(C)CC3CC3)c(C)nc12 was tested, and the Potency was inconclusive [inhibitor, partial curve, poor fit]. In the case of COc1ccc2oc(C(=O)N3CCN(C/C=C/c4ccccc4)CC3)c(C)c2c1, the Potency is reported as inconclusive [inhibitor, partial curve, poor fit]. For Cc1cccc(-n2ncc3c(Nc4ccc(Oc5ccc(Cl)cc5)cc4)ncnc32)c1, the Potency was inconclusive [inhibitor, single point]. CN(Cc1cccc(C(F)(F)F)c1)C(=O)C1CCC(=O)N(CC2CCCCC2)C1 (stereo not given) was tested, and the Potency was inconclusive [inhibitor, single point]. For OC(COc1ccc(Br)cc1)CN1CCN(c2ccccc2)CC1 (stereo not given), the Potency was inconclusive [inhibitor, partial curve, poor fit]. With Cc1ccc(-c2c[nH]c(=S)n2-c2ccccc2)cc1 the Potency was inconclusive [inhibitor, partial curve, poor fit]. Cc1cc(N2CCCCC2)nc2ccc(NC(=O)c3ccc(Br)o3)cc12 was tested, and the Potency was active: 2.82 µM. Cc1ccc(C)n1-c1c(C(=O)NCCC(C)C)sc2ncccc12 was tested, and the Potency was inconclusive [inhibitor, single point]. With CCN(CC)S(=O)(=O)c1ccc(NC(=O)c2cccs2)cc1 the Potency was inconclusive [inhibitor, partial curve, poor fit]. With Cc1ccc(S(=O)(=O)N2CCN(CC(=O)N/N=C/c3ccc(Br)s3)CC2)cc1 the Potency was inconclusive [inhibitor, single point]. With CC1CC1C(=O)OCC(=O)NC(=O)NC12CC3CC(CC(C3)C1)C2 (stereo not given) the Potency was inconclusive [inhibitor, single point]. In the case of C=CCn1c(CSc2nc3ccccc3s2)nnc1SCC(=O)NCc1ccccc1, the Potency is reported as inconclusive [inhibitor, single point]. For COc1ccc(/C=C/C(=O)Nc2cc(C(F)(F)F)ccc2Cl)cc1OC, the Potency was inconclusive [inhibitor, single point]. O=C(COc1ccc2ccccc2c1Br)N1CCCC1 was tested, and the Potency was inconclusive [inhibitor, single point].
